Enrichment ratio data for 153 variants are collected here from a collection of fitness landscapes (doi:10.1126/science.1257360).

The other results are listed elsewhere or left out.

Sequences and labels used below:
B1: PhoQ; a variant is named by its letters at X, in order, P23837 (parent)
chain: MKKLLRLFFPLSLRVRFLLATAAVVLVLSLAYGMVALIGYSVSFDKTTFRLLRGESNLFYTLAKWENNKLHVELPENIDKQSPTMTLIYDENGQLLWAQRDVPWLMKMIQPDWLKSNGFHEIEADVNDTSLLLSGDHSIQQQLQEVREDDDDAEMTHSVAVNVYPATSRMPKLTIVVVDTIPVELKSSYMVWSWFIYVLSANLLLVIPLLWVAAWWSLRPIEALAKEVRELEEHNRELLNPATTRELTSLVRNLNRLLKSERERYDKYRTTLTDLTHSLKTPLXXLQXXLRSLRSEKMSVSDAEPVMLEQISRISQQIGYYLHRASMRGGTLLSRELHPVAPLLDNLTSALNKVYQRKGVNISLDISPEISFVGEQNDFVEVMGNVLDNACKYCLEFVEISARQTDEHLYIVVEDDGPGIPLSKREVIFDRGQRVDTLRPGQGVGLAVAREITEQYEGKIVAGESMLGGARMEVIFGRQHSAPKDE

Variants of B1 are the subject of the assay. As to the kind of experiment: enrichment ratio after two sorts for PhoP signalling (ratio (wild type AVST 3.29)); higher = more functional. As to conditions: with PhoP (E. coli).
For the variant RKPV, the enrichment ratio is at most 0.25.
The same measure for DSSS: at most 0.25; for GQMI: at most 0.25; for IGLN: at most 0.25.
The same measure for HDRA: at most 0.25; for MHDQ: at most 0.25.
The same measure for YNEA: at most 0.25; for TPYT: at most 0.25.
Regarding LYLD, the enrichment ratio is at most 0.25.
As to GWRE, the enrichment ratio is at most 0.25.
The same measure for ECHM: at most 0.25; for MNTV: 12.2.
For TTSK, the enrichment ratio came out at 2.9.
The same measure for IETT: at most 0.25; for MMTG: at most 0.25.
As to QHRL, the enrichment ratio was at most 0.25.
The same measure for PGIT: at most 0.25.
Consider WKVM, for which the enrichment ratio was at most 0.25.
The same measure for TWYL: at most 0.25; for GTKP: at most 0.25; for HHVA: at most 0.25.
The same measure for NATL: at most 0.25; for HFKK: at most 0.25.
Turning to EENS, the enrichment ratio is at most 0.25.
As for MVLN, the enrichment ratio is 0.464.
In the case of QWSQ, the enrichment ratio was at most 0.25.
In the case of FPMK, the enrichment ratio is at most 0.25.
The same measure for ENKC: at most 0.25; for WNFC: at most 0.25; for FASF: at most 0.25.
The same measure for RGHP: at most 0.25; for VMLS: at most 0.25; for GTDI: at most 0.25.
The same measure for FIWF: at most 0.25.
Take HPYR: the enrichment ratio was at most 0.25.
The same measure for TWDW: at most 0.25; for VANH: at most 0.25.
Turning to AING, the enrichment ratio was at most 0.25.
The same measure for QEMY: at most 0.25; for IMPC: at most 0.25.
The same measure for IPAH: at most 0.25; for GKSR: at most 0.25; for QSER: at most 0.25.
EARS: the enrichment ratio was at most 0.25.
The same measure for QARN: at most 0.25.
Turning to SILQ, the enrichment ratio was found to be 6.96.
ARLR: the enrichment ratio was at most 0.25.
In the case of SHFS, the enrichment ratio was at most 0.25.
The same measure for ELIR: 0.697; for TNPG: at most 0.25; for SDKA: at most 0.25.
Regarding IWDA, the enrichment ratio was at most 0.25.
The same measure for MIWF: at most 0.25.
As to VAQG, the enrichment ratio is at most 0.25.
The same measure for YYTA: at most 0.25; for FLIH: at most 0.25; for AHWH: at most 0.25.
For the variant TMGH, the enrichment ratio amounted to 15.3.
The same measure for TGIL: at most 0.25; for QMCQ: at most 0.25; for DPQY: at most 0.25.
The same measure for TRAM: 15.1.
The same measure for LHTL: at most 0.25; for IDEW: at most 0.25; for MDNQ: at most 0.25.
As for WECM, the enrichment ratio was at most 0.25.
Consider RSFV, for which the enrichment ratio was at most 0.25.
The same measure for IFHL: at most 0.25.
The same measure for VYCQ: at most 0.25.
The same measure for ILWE: at most 0.25; for LIMD: at most 0.25; for YCLI: 3.1.
Consider SLNC, for which the enrichment ratio is at most 0.25.
For ACHF, the enrichment ratio is at most 0.25.
With ILKC, the enrichment ratio was at most 0.25.
The same measure for NPTS: at most 0.25; for VNSN: at most 0.25; for FLRG: at most 0.25.
The same measure for TNDT: at most 0.25; for LHAH: at most 0.25; for TGRV: at most 0.25.
The same measure for RAHK: at most 0.25; for TQAA: 3.31.
With RTED, the enrichment ratio was at most 0.25.
The same measure for FVEP: at most 0.25; for KGDH: at most 0.25; for WMKA: at most 0.25.
The same measure for TPMP: at most 0.25; for WEEN: at most 0.25; for DHNV: at most 0.25.
For the variant IWKW, the enrichment ratio is at most 0.25.
Consider PLMN, for which the enrichment ratio was at most 0.25.
Regarding EAMP, the enrichment ratio was at most 0.25.
As to HMTL, the enrichment ratio turned out to be 8.9.
The same measure for LPPM: at most 0.25; for KIYM: at most 0.25.
LTVM: the enrichment ratio is at most 0.25.
Take CVFQ: the enrichment ratio was at most 0.25.
The same measure for SCHP: at most 0.25; for ERFF: at most 0.25.
The same measure for FDRS: at most 0.25; for FEIA: at most 0.25; for FFCG: at most 0.25.
The same measure for TCQF: 6.94.
KHID: the enrichment ratio is at most 0.25.
The same measure for MFYM: 0.288; for CTCC: at most 0.25; for SIIQ: 2.23.
The same measure for VHQN: at most 0.25; for GSWP: at most 0.25.
The same measure for DIHH: at most 0.25; for GISR: at most 0.25.
Turning to YHTI, the enrichment ratio is at most 0.25.
In the case of EVTR, the enrichment ratio is at most 0.25.
Take ICEF: the enrichment ratio was at most 0.25.
The same measure for WLRG: at most 0.25; for VPHH: at most 0.25.
The same measure for MTGP: at most 0.25; for DFEW: at most 0.25.
Take EAVN: the enrichment ratio was at most 0.25.
The same measure for IVAQ: at most 0.25.
The same measure for KIKK: at most 0.25; for QVEF: at most 0.25; for EVSL: at most 0.25.
The same measure for YNPS: at most 0.25.
IPRN: the enrichment ratio is at most 0.25.
The same measure for SILW: at most 0.25; for QVGC: at most 0.25; for VLNF: at most 0.25.
Take HCPA: the enrichment ratio is at most 0.25.
The same measure for QYNK: at most 0.25; for DKCP: at most 0.25.
The same measure for YLVP: at most 0.25; for WAAL: at most 0.25.
The same measure for MQII: at most 0.25; for GEPK: at most 0.25; for NGTW: at most 0.25.
For the variant NAYS, the enrichment ratio was at most 0.25.
The same measure for PRVP: at most 0.25; for WVRW: at most 0.25.
The same measure for RGHD: at most 0.25; for GVVK: at most 0.25.
With ETTM, the enrichment ratio is at most 0.25.
The same measure for KTGR: at most 0.25; for FSMT: 2.35; for WHGQ: at most 0.25.
The same measure for WMGY: at most 0.25.
The same measure for TTGL: 12.3; for VIFT: at most 0.25.
For YVMS, the enrichment ratio is 0.375.
The same measure for PDGN: at most 0.25; for SMQH: 14.9; for ESHI: at most 0.25.
